Reference: PubChem BioAssay AID463173 (ICCB-Longwood Screening Facility, Harvard Medical School, 2010)
Screen size: about 52,000 compounds; about 4,300 (8.3%) were called active. Cut-off read from the data, not from the text of the source: active = survival mostly below about 52% (no sharp cut-off); inactive = mostly above about 56%. The list shows a part of the results.

System: DeltatarO mutant
Experiment: growth inhibition of S. aureus wild type versus tarO mutant, primary screen, teichoic acid synthesis inhibitors, RN4220, OD600 (AID 463173)
Settings: OD600, 18 h, hits give low values, screened at 18.75 µg/mL (by protocol)

Which survival does the source give for `Cc1c(C#N)c2ccccc2n1CC(=O)NC1CCCCCC1` here?
The survival was inactive: 72%.

With `Cc1c(C(=O)NCc2ccc(OC(C)C)cc2)sc2ncnc(N(C)C3CCCCC3)c12` as the compound, how does the survival read?
The survival was inactive: 98%.

With `CC1=Nc2cc(C(=O)N3CCCCC3)ccc2Sc2ccc(C)cc21` as the compound, how does the survival read?
Its survival is inactive: 48%.

With `COc1ccccc1CCNC(=O)CCCn1c(=O)c2cccn2c2cccnc21` as the compound, how does the survival read?
Its survival is inactive: 92%.

For `COc1ccc(-c2nc(CN3CCC(C(=O)NCc4ccc(F)cc4)CC3)c(C)o2)cc1OC`, which survival is on record?
Its survival is inactive: 101%.

How did the survival turn out when `CCCC(=O)Nc1nnc(SCc2cc(=O)n3cccc(C)c3n2)s1` was run?
Its survival is inactive: 82%.

Which survival does the source give for `COc1ccc(CNC(=O)Cn2ncc3c(=O)oc4ccc(C)cc4c32)c(OC)c1` here?
The survival was inactive: 107%.

For `Cc1cc(=O)n2[nH]c(NC(=O)c3cccc(Cl)c3)nc2n1`, which survival is on record?
Its survival is inactive: 101%.

How did the survival turn out when `Cn1nnnc1SCC(=O)OC1CCCCC1` was run?
Its survival is inactive: 87%.

For `COc1cc(Cl)c(C)cc1NC(=O)c1nn(C)c2c1CSc1ccccc1-2`, which survival is on record?
Its survival is inactive: 83%.

Which survival does the source give for `CCCCc1nc2c(nnn2Cc2ccccc2)c(=O)[nH]1` here?
The survival was inactive: 82%.

How did the survival turn out when `O=C(CCCCn1c(=O)c2ccccc2n(Cc2cccc(Cl)c2)c1=O)NCc1ccc2c(c1)OCO2` was run?
The survival was inactive: 85%.

`COc1ccc(CNC(=O)c2cc(-c3ccc(Cl)cc3)n[nH]2)cc1` was tested. Which survival did it give?
Its survival is inactive: 78%.

With `O=C(NCc1nc(-c2ccccc2)no1)c1ccco1` as the compound, how does the survival read?
The survival was inactive: 68%.

Which survival does the source give for `CCOC(=O)c1c(C)oc2nc(C)nc(N3CCN(c4cccc(C(F)(F)F)c4)CC3)c12` here?
The survival was inactive: 80%.

Which survival does the source give for `COc1ccc(C2CC(=O)N(CC(=O)Nc3ccc(C(C)=O)cc3)c3ccccc3S2)cc1OC` (stereo not given) here?
Its survival is inactive: 94%.

`CCCN(CCC)CCNC(=O)c1nn(C)c2c1CS(=O)(=O)c1ccccc1-2` was tested. Which survival did it give?
Its survival is inactive: 61%.

How did the survival turn out when `O=C(NCC(c1ccc2c(c1)OCO2)N1CCN(c2ccccc2F)CC1)c1ccccc1F` (stereo not given) was run?
The survival was inactive: 71%.

Which survival does the source give for `O=c1[nH]cnc2nc3c4ccccc4c4ccccc4c3nc12` here?
Its survival is inactive: 74%.

Which survival does the source give for `CCOC(=O)c1c(NC(=O)/C=C/c2ccc(Cl)cc2)sc2c1CCC(C)C2` (stereo not given) here?
The survival was active: 44%.

How did the survival turn out when `Cc1ccccc1C(=O)n1nc(-c2ccco2)nc1NCc1cccs1` was run?
The survival was inactive: 58%.

How did the survival turn out when `Cc1ccc2[nH]c(CSc3nnc(NC(=O)COc4ccc(F)cc4)s3)cc(=O)c2c1` was run?
Its survival is inactive: 81%.

For `COc1ccc(Nc2cc(C(=O)NCCCN(C)C3CCCCC3)c3ccccc3n2)c(OC)c1`, which survival is on record?
Its survival is inactive: 106%.

Which survival does the source give for `COC(=O)c1ccc2c(=O)n(CCCCCC(=O)NCc3ccc(OC)cc3)c(=O)[nH]c2c1` here?
Its survival is inactive: 71%.

Which survival does the source give for `COc1ccc(-c2cc(C)no2)cc1S(=O)(=O)N1CCOc2ccc(Cl)cc21` here?
Its survival is inactive: 92%.

Which survival does the source give for `CCCN1CCN(c2cc(-c3ccccc3)nc3cc(-c4cccc(F)c4)nn23)CC1` here?
The survival was inactive: 68%.

With `CNC(=O)C1C2C=CC3(O2)C1C(=O)N(C1CC1)C3C(=O)NCc1ccc(OC)cc1` (stereo not given) as the compound, how does the survival read?
The survival was inactive: 95%.

For `CC(C)c1ccc(NC(=O)CN2C(=O)COc3ccc(S(=O)(=O)N4CCOCC4)cc32)cc1`, which survival is on record?
Its survival is inactive: 67%.

How did the survival turn out when `COc1ccc(CCNc2nc(SCc3cccc(F)c3)nc3ccccc23)cc1OC` was run?
Its survival is inactive: 85%.

`CCCN(CCC)CCCNC(=O)c1cn(C)c2ccc(S(=O)(=O)N3CCOCC3)cc2c1=O` was tested. Which survival did it give?
The survival was inactive: 90%.

`CCCn1c2ccccc2c2cnn(CC(=O)NCCCN(Cc3ccccc3)C(C)C)c(=O)c21` was tested. Which survival did it give?
The survival was inactive: 88%.

For `O=S(=O)(NCCc1csc2nc(-c3ccc(Cl)cc3)nn12)c1ccc2c(c1)OCCO2`, which survival is on record?
Its survival is inactive: 72%.

`CCc1ccc(C2c3c(-c4ccccc4)n[nH]c3C(=O)N2c2ccc(C(=O)O)cc2)cc1` (stereo not given) was tested. Which survival did it give?
The survival was active: 48%.

`COc1cccc(-n2cc(C(=O)NCc3ccc(C)cc3)c3ccccc3c2=O)c1` was tested. Which survival did it give?
The survival was inactive: 81%.

With `O=C(CN1N=C(c2ccccc2)CCC1=O)NCc1ccc(F)cc1Cl` as the compound, how does the survival read?
The survival was inactive: 88%.

`O=C(CSc1nccn1Cc1ccc(Cl)cc1)Nc1ccc2c(c1)OCO2` was tested. Which survival did it give?
Its survival is inactive: 99%.

For `Cc1nn(-c2ccc(N3CCOCC3)nn2)c(C)c1CCC(=O)Nc1ccc(F)cc1F`, which survival is on record?
The survival was inactive: 116%.

Which survival does the source give for `O=C(Nc1ccc(NC(=O)c2ccccc2F)cn1)c1ccco1` here?
The survival was inactive: 82%.

With `COc1ccc(NC(=O)C2CCCN(S(=O)(=O)c3c(C)[nH]c(=O)[nH]c3=O)C2)cc1Cl` (stereo not given) as the compound, how does the survival read?
The survival was inactive: 84%.

With `Cc1cc(C)cc(OCCSc2nc(-c3cccs3)nc3cc(=O)[nH]n23)c1` as the compound, how does the survival read?
The survival was inactive: 67%.

Which survival does the source give for `CCc1cc2c(cc3c(=O)n(CC(=O)NCCc4ccccc4)ncn32)s1` here?
The survival was inactive: 83%.

`O=C(Nc1ccc(Cl)c(C(F)(F)F)c1)C(Cc1ccccc1)NS(=O)(=O)c1cccc2nsnc12` (stereo not given) was tested. Which survival did it give?
The survival was inactive: 64%.

Which survival does the source give for `Cc1ccc(C)c(NC(=O)c2ccc3c(c2)CCN3S(=O)(=O)c2ccccc2)c1` here?
The survival was active: 40%.

How did the survival turn out when `CCC(Sc1nc2ncccc2o1)C(=O)Nc1cccc(C)c1` (stereo not given) was run?
The survival was inactive: 84%.

`O=c1[nH]cnc2c1nnn2Cc1ccccc1F` was tested. Which survival did it give?
Its survival is inactive: 88%.

With `O=C(CCCn1c(=O)[nH]c2ccccc2c1=O)N1CCN(c2ccccc2)CC1` as the compound, how does the survival read?
Its survival is inactive: 116%.

Which survival does the source give for `CCOC(=O)c1cc2c(=O)n3ccccc3nc2n(Cc2ccco2)c1=NC(=O)c1ccc(F)cc1` here?
Its survival is active: 43%.

For `O=S(=O)(NCCc1cn2ccsc2n1)c1ccc(Cl)cc1`, which survival is on record?
Its survival is inactive: 109%.

`CCCCCCc1cc2cc(-c3cn4c(n3)sc3cc(OC)ccc34)c(=O)oc2cc1O` was tested. Which survival did it give?
Its survival is inactive: 94%.

For `COc1ccc(CN(C(=O)c2ccc(CN3CCOCC3)o2)C(C(=O)NCC2CCCO2)c2ccc(F)cc2)cc1` (stereo not given), which survival is on record?
Its survival is inactive: 68%.

For `Cc1ccc(C(=O)NC2CC3CCCC(C2)N3C(=O)NC2CCCCC2)cc1` (stereo not given), which survival is on record?
Its survival is inactive: 62%.

With `Cc1cc(=O)n2c([nH]c3ccccc32)c1C(=O)O` as the compound, how does the survival read?
Its survival is inactive: 61%.

For `Cc1ccc(C(=O)c2sc(Nc3ccc(F)cc3)nc2N)c(C)c1`, which survival is on record?
The survival was inactive: 78%.

`Cc1ccc2c(c1)C(C)(c1ccccc1)CC(C)(C)N2C(=O)c1ccc(F)cc1` (stereo not given) was tested. Which survival did it give?
Its survival is active: -4%.

`COc1ccc(-c2nc(CNC(=O)NC3CCCCC3)c(C)o2)c(OC)c1` was tested. Which survival did it give?
Its survival is inactive: 94%.

For `CC(=O)c1ccc(NC(=O)Cn2c(=O)oc3cc(S(=O)(=O)N4CCCCC4)ccc32)cc1`, which survival is on record?
Its survival is inactive: 86%.

`O=C1CCCc2[nH]c(=O)c(-c3nc(-c4cccc([N+](=O)[O-])c4)cs3)cc21` was tested. Which survival did it give?
Its survival is inactive: 47%.

Which survival does the source give for `CCOc1ccccc1NC(=O)Cn1c(=O)n(Cc2ccccc2)c(=O)c2c3c(sc21)CN(C(C)=O)CC3` here?
Its survival is inactive: 94%.

For `O=C(CCC1N=C2c3ccccc3N=C(SCc3ccc(Cl)cc3)N2C1=O)NC1CCCCC1` (stereo not given), which survival is on record?
Its survival is inactive: 72%.

How did the survival turn out when `COc1ccc(Cl)cc1NC(=O)c1sc2nc3c(cc2c1N)CN(C)CC3` was run?
Its survival is inactive: 99%.

With `Cc1cccc(C)c1NC(=O)Cn1c(=O)cc(C)c2c(C)nn(-c3cccc(Cl)c3C)c21` as the compound, how does the survival read?
Its survival is inactive: 93%.

`Cc1ccc(-n2ncc3c(N4CCCCC4)ncnc32)cc1` was tested. Which survival did it give?
The survival was inactive: 95%.

With `O=C(CN1CCN(C2CCCCC2)C(=O)C1=O)Nc1ccc(Cl)cc1` as the compound, how does the survival read?
The survival was inactive: 86%.

Which survival does the source give for `O=C(Nc1cccc(Cl)c1)c1cc(S(=O)(=O)N2CCC3(CC2)OCCO3)ccc1F` here?
The survival was inactive: 128%.

For `O=C(NCCN1CCCC1)c1ccco1`, which survival is on record?
Its survival is inactive: 85%.

How did the survival turn out when `COc1cc(OC)c(NC(=O)Cn2cnc3c(nc4n3CCCCC4)c2=O)cc1Cl` was run?
The survival was inactive: 72%.

With `Cc1ccccc1C(=O)n1nc(-c2cccnc2)nc1NCc1ccc(F)cc1` as the compound, how does the survival read?
Its survival is inactive: 48%.

How did the survival turn out when `CCN(CCCNC(=O)Cn1ncc2c3ccccc3n(C)c2c1=O)c1cccc(C)c1` was run?
Its survival is inactive: 81%.

`Cc1cc(OCC(=O)Nc2nc3c(s2)CCCC3)cc(C)c1Cl` was tested. Which survival did it give?
Its survival is inactive: 85%.

`CCOC(=O)c1ccccc1NC(=O)COc1cc(=O)n(CC)c2ccccc12` was tested. Which survival did it give?
Its survival is inactive: 53%.

Which survival does the source give for `Cc1nc(SCC(N)=O)c2c3c(sc2n1)CCCC3` here?
Its survival is inactive: 80%.

Which survival does the source give for `CC1CC(=O)N(CC(=O)Nc2ccc(OC(F)(F)F)cc2)c2ccccc2S1` (stereo not given) here?
The survival was inactive: 65%.

`Cc1ccc(-c2nn(CO)c(=S)o2)cc1` was tested. Which survival did it give?
Its survival is active: 48%.

For `Cc1cccc(N(C)C(=O)c2cc3c(=O)oc4ccc(C)cc4c3s2)c1`, which survival is on record?
The survival was inactive: 103%.

With `Cc1ccc(CCNC(=O)c2cc3cc(S(=O)(=O)N4CCCCC4)ccc3n2C)cc1` as the compound, how does the survival read?
The survival was inactive: 89%.

`CCOc1ccc(-n2nc3ccc(NC(=O)c4ccc(C)cc4C)cc3n2)cc1` was tested. Which survival did it give?
Its survival is inactive: 82%.

Which survival does the source give for `CCC(=O)Nc1ccccc1C(=O)OCc1cc(=O)n2cc(C)sc2n1` here?
Its survival is inactive: 75%.

With `O=C(NC1C2CC3CC(C2)CC1C3)c1cccnc1` (stereo not given) as the compound, how does the survival read?
Its survival is inactive: 83%.

For `COc1ccc(OC)c(NC(=O)Cn2c(CCC(=O)O)ccc2-c2ccccc2)c1`, which survival is on record?
The survival was inactive: 103%.

With `COc1cc(C(C(=O)NC2CCCCC2)N(Cc2ccco2)C(=O)c2cnccn2)cc(OC)c1OC` (stereo not given) as the compound, how does the survival read?
The survival was inactive: 83%.

With `CC(C)CCN1C(=O)c2ccccc2CC1(C)C(=O)NC1CCCCC1` (stereo not given) as the compound, how does the survival read?
The survival was inactive: 88%.

How did the survival turn out when `CCOCCc1nn2c(=O)cc(COC(=O)c3ccccc3NC(=O)CC(C)C)nc2s1` was run?
Its survival is inactive: 89%.

With `CC(C)CN(CC(C)C)S(=O)(=O)c1ccc(C(=O)Nc2sc3c(c2C(N)=O)CCN(C(C)C)C3)cc1` as the compound, how does the survival read?
Its survival is inactive: 95%.

`CCC(c1nnnn1C1CCCC1)N(Cc1cccs1)Cc1cc2cccc(C)c2[nH]c1=O` (stereo not given) was tested. Which survival did it give?
Its survival is inactive: 98%.

`CCOc1ccc(-c2noc(CSc3nnc(Cc4ccccc4)n3-c3ccc(F)cc3)n2)cc1` was tested. Which survival did it give?
Its survival is inactive: 72%.

Which survival does the source give for `Cc1cccc(N2CCN(c3ncnc4c3cnn4-c3ccc(Cl)cc3)CC2C)c1` (stereo not given) here?
Its survival is inactive: 71%.

With `O=C(O)c1cc(-c2ccccc2)on1` as the compound, how does the survival read?
The survival was inactive: 100%.

`COC(=O)c1scc(-c2ccc(C)cc2)c1S(=O)(=O)N1CCN(c2ccccc2F)CC1` was tested. Which survival did it give?
The survival was inactive: 118%.

Which survival does the source give for `O=C(Cn1c(-c2cccs2)cc2cc(F)ccc21)N1CCCCC1` here?
The survival was inactive: 90%.

For `COc1cccc(C(=O)Nc2c3c(nn2-c2ccc(C)cc2C)CS(=O)(=O)C3)c1OC`, which survival is on record?
Its survival is inactive: 116%.
